B1: CM0042 (FZD Diabody-Fc-LRP Diabody; paratopes 5019; 2539) (bispecific antibody)
chain: MNLLLILTFVAAAVAEFEVQLVESGGGLVQPGGSLRLSCAASGFNIGSSSIHWVRQAPGKGLEWVASIYSAFASTSYADSVKGRFTISADTSKNTAYLQMNSLRAEDTAVYYCARYHFPFGFALDYWGQGTLVTVSSGGGGSDIQMTQSPSSLSASVGDRVTITCRASQSVSSAVAWYQQKPGKAPKLLIYSASSLYSGVPSRFSGSRSGTDFTLTISSLQPEDFATYYCQQGVYLFTFGQGTKVEIKLEDKTHTKV[sequence of human IgG1 Fc with C220S (EU numbers) not given]SGSETPGTSESATPESGGGEVQLVESGGGLVQPGGSLRLSCAASGFNISYSSIHWVRQAPGKGLEWVAYISSYYGYTYYADSVKGRFTISADTSKNTAYLQMNSLRAEDTAVYYCARAHYFPWAGAMDYWGQGTLVTVSSGGGGSDIQMTQSPSSLSASVGDRVTITCRASQSVSSAVAWYQQKPGKAPKLLIYSASSLYSGVPSRFSGSRSGTDFTLTISSLQPEDFATYYCQQYSWGPFTFGQGTKVEIK
B2: CM0299 (FZD IgG-LRP Diabody; paratopes 5016; 2539) (bispecific antibody)
heavy: EVQLVESGGGLVQPGGSLRLSCAASGFNIHSSSIHWVRQAPGKGLEWVAATYSSFGSITYADSVKGRFTISADTSKNTAYLQMNSLRAEDTAVYYCARYHHPFGYALDYWGQGTLVTVSS[sequence of human IgG1 constant region not given]SGSETPGTSESATPESGGGEVQLVESGGGLVQPGGSLRLSCAASGFNISYSSIHWVRQAPGKGLEWVAYISSYYGYTYYADSVKGRFTISADTSKNTAYLQMNSLRAEDTAVYYCARAHYFPWAGAMDYWGQGTLVTVSSGGGGSDIQMTQSPSSLSASVGDRVTITCRASQSVSSAVAWYQQKPGKAPKLLIYSASSLYSGVPSRFSGSRSGTDFTLTISSLQPEDFATYYCQQYSWGPFTFGQGTKVEIK
light: DIQMTQSPSSLSASVGDRVTITCRASQSVSSAVAWYQQKPGKAPKLLIYSASSLYSGVPSRFSGSRSGTDFTLTISSLQPEDFATYYCQQGVYLFTFGQGTKVEIKRTVAAPSVFIFPPSDEQLKSGTASVVCLLNNFYPREAKVQWKVDNALQSGNSQESVTEQDSKDSTYSLSSTLTLSKADYEKHKVYACEVTHQGLSSPVTKSFNRGEC
B3: CM0300 (FZD IgG-LRP scFv; paratopes 5016; 2539) (bispecific antibody)
heavy: EVQLVESGGGLVQPGGSLRLSCAASGFNIHSSSIHWVRQAPGKGLEWVAATYSSFGSITYADSVKGRFTISADTSKNTAYLQMNSLRAEDTAVYYCARYHHPFGYALDYWGQGTLVTVSS[sequence of human IgG1 constant region not given]SGSETPGTSESATPESGGGDIQMTQSPSSLSASVGDRVTITCRASQSVSSAVAWYQQKPGKAPKLLIYSASSLYSGVPSRFSGSRSGTDFTLTISSLQPEDFATYYCQQYSWGPFTFGQGTKVEIKGTTAASGSSGGSSSGAEVQLVESGGGLVQPGGSLRLSCAASGFNISYSSIHWVRQAPGKGLEWVAYISSYYGYTYYADSVKGRFTISADTSKNTAYLQMNSLRAEDTAVYYCARAHYFPWAGAMDYWGQGTLVTVSS
light: B2 light
B4: CM0301 (FZD IgG-LRP scFv; paratopes 5016; 2542) (bispecific antibody)
heavy: EVQLVESGGGLVQPGGSLRLSCAASGFNIHSSSIHWVRQAPGKGLEWVAATYSSFGSITYADSVKGRFTISADTSKNTAYLQMNSLRAEDTAVYYCARYHHPFGYALDYWGQGTLVTVSS[sequence of human IgG1 constant region not given]SGSETPGTSESATPESGGGDIQMTQSPSSLSASVGDRVTITCRASQSVSSAVAWYQQKPGKAPKLLIYSASSLYSGVPSRFSGSRSGTDFTLTISSLQPEDFATYYCQQYYWPITFGQGTKVEIKGTTAASGSSGGSSSGAEVQLVESGGGLVQPGGSLRLSCAASGFNISSYYIHWVRQAPGKGLEWVASIYSSYGYTSYADSVKGRFTISADTSKNTAYLQMNSLRAEDTAVYYCARTVRGSKKPYFSGWAMDYWGQGTLVTVSS
light: B2 light

The binders below were run against FZD1/2/4/5/7/8 (assay: cell-based or functional assay).
Binder B1 has a TOPFLASH % Wnt Maxima of 33 % Wnt Maxima and a TOPFLASH EC50 of 0.9 nM.
B2 showed a TOPFLASH % Wnt Maxima of 14 % Wnt Maxima and a TOPFLASH EC50 of 0.1 nM.
With B3 the TOPFLASH % Wnt Maxima was 5 % Wnt Maxima and the TOPFLASH EC50 was 0.3 nM.
B4 gave a TOPFLASH % Wnt Maxima of 1 % Wnt Maxima and a TOPFLASH EC50 of 0.2 nM.
